Experimental data reported in patent US20230174598A1 (UNIVERSITY OF FLORIDA RESEARCH FOUNDATION, published 2023).

Target: bovine enolase-1 (bovine, UniProt Q9XSJ4 1-434, AlexaFluor-546 maleimide on reactive cysteines (pulldown assay only; unlabeled in the quench and activity assays))
Assay: cell-based or functional assay

Chain of UniProt Q9XSJ4 (Q9XSJ4 whole entry): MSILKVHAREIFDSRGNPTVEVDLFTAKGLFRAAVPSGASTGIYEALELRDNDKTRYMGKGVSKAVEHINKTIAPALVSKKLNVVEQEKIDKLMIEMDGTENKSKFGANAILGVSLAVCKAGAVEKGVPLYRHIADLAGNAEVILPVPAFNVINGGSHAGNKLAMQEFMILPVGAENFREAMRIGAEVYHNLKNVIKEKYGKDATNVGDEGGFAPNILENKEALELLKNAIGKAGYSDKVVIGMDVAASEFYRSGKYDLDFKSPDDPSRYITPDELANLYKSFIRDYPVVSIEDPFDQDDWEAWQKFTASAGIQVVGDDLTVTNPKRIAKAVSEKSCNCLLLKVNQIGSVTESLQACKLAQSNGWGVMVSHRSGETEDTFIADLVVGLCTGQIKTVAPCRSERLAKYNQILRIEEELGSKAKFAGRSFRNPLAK

B1: bovine wild-type arrestin-1, N-terminally His(6)-tagged (other)
chain: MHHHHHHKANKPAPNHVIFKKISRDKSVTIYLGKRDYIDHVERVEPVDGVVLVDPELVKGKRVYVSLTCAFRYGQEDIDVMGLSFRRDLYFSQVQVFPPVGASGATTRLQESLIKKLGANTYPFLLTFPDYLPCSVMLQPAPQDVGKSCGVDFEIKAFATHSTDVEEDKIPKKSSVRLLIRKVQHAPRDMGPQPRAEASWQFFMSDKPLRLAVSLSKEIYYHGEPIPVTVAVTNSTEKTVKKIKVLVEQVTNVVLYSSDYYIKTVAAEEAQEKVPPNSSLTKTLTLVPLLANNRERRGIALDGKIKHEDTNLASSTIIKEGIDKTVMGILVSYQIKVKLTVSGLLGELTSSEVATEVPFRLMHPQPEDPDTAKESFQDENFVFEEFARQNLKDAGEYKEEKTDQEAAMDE
For B1, the “% inhibition of enolase-1 catalytic activity” value was 25.2%.
